Laboratory results as given in PMC8413330.
These are yes or no findings as the source states them, for the method shown. In cells and extracts the contact can be indirect. Some entries that bind do so weakly or less than the wild type. Where a sequence is shown, tags or fusion partners need not be part of it.

The chains behind the UniProt entries cited, without tags or fusion partners.
UniProt P51608: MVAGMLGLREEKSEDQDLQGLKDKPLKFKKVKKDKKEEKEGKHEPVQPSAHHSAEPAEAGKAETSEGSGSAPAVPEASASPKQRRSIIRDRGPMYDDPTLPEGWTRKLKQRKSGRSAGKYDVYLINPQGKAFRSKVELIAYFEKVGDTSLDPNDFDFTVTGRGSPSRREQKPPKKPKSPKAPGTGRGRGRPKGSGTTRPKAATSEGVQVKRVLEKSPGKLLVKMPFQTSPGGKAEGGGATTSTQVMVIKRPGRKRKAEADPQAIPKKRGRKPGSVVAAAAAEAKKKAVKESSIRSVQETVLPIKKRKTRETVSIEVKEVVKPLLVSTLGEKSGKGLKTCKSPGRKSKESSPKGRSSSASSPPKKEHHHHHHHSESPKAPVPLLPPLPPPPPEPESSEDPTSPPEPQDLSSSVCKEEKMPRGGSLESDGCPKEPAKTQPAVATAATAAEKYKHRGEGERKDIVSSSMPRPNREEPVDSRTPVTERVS

Target: T1, HA-CXXC5 (UniProt Q7LFL8)
T1 sequence: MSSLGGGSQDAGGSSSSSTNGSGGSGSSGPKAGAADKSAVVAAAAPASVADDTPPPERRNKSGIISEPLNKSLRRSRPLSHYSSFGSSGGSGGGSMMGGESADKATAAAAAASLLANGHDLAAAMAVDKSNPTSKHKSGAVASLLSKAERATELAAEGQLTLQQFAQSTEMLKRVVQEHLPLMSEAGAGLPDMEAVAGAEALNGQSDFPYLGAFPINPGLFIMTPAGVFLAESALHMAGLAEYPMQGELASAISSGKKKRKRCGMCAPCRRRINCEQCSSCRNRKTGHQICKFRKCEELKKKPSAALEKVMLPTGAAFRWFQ
Test: co-IP; nuclear extracts (500 ug, NE-PER) of transiently co-transfected HEK293 cells (48 h); HA antibody or isotype-matched IgG with protein A and G magnetic beads at 4 °C; washes in 150 mM NaCl, 10 mM HEPES pH 7.5, 10 mM MgCl2, 0.5% Igepal; WB with the Flag or HA antibody

binding: binds
Substance: 3F-MeCP2 (from UniProt P51608 1-486)
